Experimental data reported in a compilation of properties of binary mixtures (doi:10.1016/j.molliq.2011.01.005).
Some of these densities may be calculated back from excess volumes.

Assay: xn = mol fraction of the nth substance listed
Conditions: 101 kPa

CO + CC(O)C(=O)[O-].[NH3+]CCO
x1 = 1
Conditions	mass density [kg/m3]
293.15 K	791.2
298.15 K	786.5
303.15 K	781.8
308.15 K	777

CC(O)C(=O)[O-].[NH3+]CCO (stereo unspecified) + CO
mass density [kg/m3]
Conditions	293.15 K	298.15 K	303.15 K	308.15 K	313.15 K
x2 = 0	1214.5	1210.2	–	1204.5	–
x2 = 0.0393	1210.5	–	1203.1	1200.8	1197.9
x2 = 0.0944	1204.1	1200	–	1194.6	1191.8
x2 = 0.1969	1189.6	–	–	1180.2	–
x2 = 0.3055	1170.5	–	1163.3	1160.8	1157.9
x2 = 0.3991	1150.6	–	1143.3	1140.7	1137.6
x2 = 0.4849	1128.8	1124.7	1121.4	–	1115.4
x2 = 0.5976	1093.2	1089	1085.5	1082.5	1079.2
x2 = 0.6985	1051	1046.8	1043.2	1039.9	–
x2 = 0.7864	1002.1	997.9	994.1	990.5	–
x2 = 0.8976	914.4	910	905.8	901.7	897.5
x2 = 0.9443	864.8	–	855.9	851.5	847.1
